{
  "sequences": {"note": "The chains behind the UniProt entries cited, without tags or fusion partners. Residues count along the entry.", "UniProt P34741, residues 19-201": "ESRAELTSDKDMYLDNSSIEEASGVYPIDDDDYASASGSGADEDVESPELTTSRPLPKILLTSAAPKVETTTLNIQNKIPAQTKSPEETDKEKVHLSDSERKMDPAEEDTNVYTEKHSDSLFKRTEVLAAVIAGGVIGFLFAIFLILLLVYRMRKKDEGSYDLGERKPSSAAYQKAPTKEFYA", "UniProt O75056": "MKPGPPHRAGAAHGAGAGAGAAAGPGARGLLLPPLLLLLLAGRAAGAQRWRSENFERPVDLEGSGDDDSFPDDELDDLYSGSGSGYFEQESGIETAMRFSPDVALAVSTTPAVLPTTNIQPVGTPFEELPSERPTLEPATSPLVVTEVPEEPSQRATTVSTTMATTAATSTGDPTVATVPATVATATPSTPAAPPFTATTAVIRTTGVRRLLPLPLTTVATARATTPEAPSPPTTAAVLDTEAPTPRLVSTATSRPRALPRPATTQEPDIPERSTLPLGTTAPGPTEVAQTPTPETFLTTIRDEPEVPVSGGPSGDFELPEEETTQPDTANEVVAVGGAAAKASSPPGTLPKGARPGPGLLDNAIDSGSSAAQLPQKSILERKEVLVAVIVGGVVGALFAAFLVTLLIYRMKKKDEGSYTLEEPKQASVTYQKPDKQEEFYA"},
  "source": "paper PMC4906230",
  "binders": {"B1": {"name": "RIG-I, transfected, construct not told for the experiment (protein, UniProt O95786 1-925)", "chain": "MTTEQRRSLQAFQDYIRKTLDPTYILSYMAPWFREEEVQYIQAEKNNKGPMEAATLFLKFLLELQEEGWFRGFLDALDHAGYSGLYEAIESWDFKKIEKLEEYRLLLKRLQPEFKTRIIPTDIISDLSECLINQECEEILQICSTKGMMAGAEKLVECLLRSDKENWPKTLKLALEKERNKFSELWIVEKGIKDVETEDLEDKMETSDIQIFYQEDPECQNLSENSCPPSEVSDTNLYSPFKPRNYQLELALPAMKGKNTIICAPTGCGKTFVSLLICEHHLKKFPQGQKGKVVFFANQIPVYEQQKSVFSKYFERHGYRVTGISGATAENVPVEQIVENNDIIILTPQILVNNLKKGTIPSLSIFTLMIFDECHNTSKQHPYNMIMFNYLDQKLGGSSGPLPQVIGLTASVGVGDAKNTDEALDYICKLCASLDASVIATVKHNLEELEQVVYKPQKFFRKVESRISDKFKYIIAQLMRDTESLAKRICKDLENLSQIQNREFGTQKYEQWIVTVQKACMVFQMPDKDEESRICKALFLYTSHLRKYNDALIISEHARMKDALDYLKDFFSNVRAAGFDEIEQDLTQRFEEKLQELESVSRDPSNENPKLEDLCFILQEEYHLNPETITILFVKTRALVDALKNWIEGNPKLSFLKPGILTGRGKTNQNTGMTLPAQKCILDAFKASGDHNILIATSVADEGIDIAQCNLVILYEYVGNVIKMIQTRGRGRARGSKCFLLTSNAGVIEKEQINMYKEKMMNDSILRLQTWDEAVFREKILHIQTHEKFIRDSQEKPKPVPDKENKKLLCRKCKALACYTADVRVIEECHYTVLGDAFKECFVSRPHPKPKQFSSFEKRAKIFCARQNCSHDWGIHVKYKTFEIPVIKIESFVVEDIATGVQTLYSKWKDFHFEKIPFDPAEMSK"}, "B2": {"name": "RIG-I, transfected, construct not told for the experiment, O95786 1-925 (protein)", "chain": "B1 chain"}, "B3": {"name": "HA-tagged full-length RIG-I (protein, UniProt O95786 1-925)", "chain": "B1 chain"}, "B4": {"name": "endogenous RIG-I (protein, UniProt O95786 1-925)", "chain": "B1 chain"}},
  "key": {"[1]": {"target": "T1, Flag-tagged CYLD (UniProt Q9NQC7)", "T1 sequence": "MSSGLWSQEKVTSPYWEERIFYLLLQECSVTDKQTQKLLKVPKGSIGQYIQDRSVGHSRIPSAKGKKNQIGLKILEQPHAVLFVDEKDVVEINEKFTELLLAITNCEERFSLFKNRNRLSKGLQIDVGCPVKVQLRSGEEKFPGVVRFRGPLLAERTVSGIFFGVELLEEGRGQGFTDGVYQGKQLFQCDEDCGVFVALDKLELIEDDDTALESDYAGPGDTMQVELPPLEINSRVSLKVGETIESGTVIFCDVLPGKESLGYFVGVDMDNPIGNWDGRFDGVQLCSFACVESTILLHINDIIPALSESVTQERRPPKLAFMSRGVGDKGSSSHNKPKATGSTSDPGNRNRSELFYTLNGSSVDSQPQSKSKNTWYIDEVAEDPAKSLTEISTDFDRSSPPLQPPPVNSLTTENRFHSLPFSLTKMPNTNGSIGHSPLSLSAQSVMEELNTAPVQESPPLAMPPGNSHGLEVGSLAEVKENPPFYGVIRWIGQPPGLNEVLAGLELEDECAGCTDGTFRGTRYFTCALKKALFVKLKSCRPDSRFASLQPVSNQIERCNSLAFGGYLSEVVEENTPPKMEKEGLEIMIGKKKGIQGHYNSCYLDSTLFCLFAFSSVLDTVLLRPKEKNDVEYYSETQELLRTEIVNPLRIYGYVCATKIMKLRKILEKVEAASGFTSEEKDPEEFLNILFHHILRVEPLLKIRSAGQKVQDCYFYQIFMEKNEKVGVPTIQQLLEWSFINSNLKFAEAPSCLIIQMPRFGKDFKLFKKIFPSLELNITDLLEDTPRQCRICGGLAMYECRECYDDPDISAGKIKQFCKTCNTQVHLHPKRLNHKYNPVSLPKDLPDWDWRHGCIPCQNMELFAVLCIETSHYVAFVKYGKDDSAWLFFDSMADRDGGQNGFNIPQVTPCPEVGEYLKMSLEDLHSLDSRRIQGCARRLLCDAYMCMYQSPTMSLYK", "assay": "co-IP; HEK293 cells transfected with epitope-tagged expression plasmids, lysed 24 h later; lysates immunoprecipitated with anti-Myc or anti-Flag beads and immunoblotted; in Fig. 7f,g with SDC4 overexpressed or knocked down by siRNA"}, "[2]": {"target": "T2, Myc-tagged SDC1 (UniProt P18827)", "T2 sequence": "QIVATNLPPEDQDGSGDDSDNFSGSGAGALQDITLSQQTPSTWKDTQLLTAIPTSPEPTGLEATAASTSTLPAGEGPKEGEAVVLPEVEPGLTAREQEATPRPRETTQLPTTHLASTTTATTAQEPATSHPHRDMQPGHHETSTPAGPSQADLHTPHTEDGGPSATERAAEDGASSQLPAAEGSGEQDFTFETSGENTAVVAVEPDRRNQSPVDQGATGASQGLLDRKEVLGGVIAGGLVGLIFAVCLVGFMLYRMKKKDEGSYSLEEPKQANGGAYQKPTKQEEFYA", "assay": "co-IP; HEK293 cells transfected with epitope-tagged expression plasmids, lysed 24 h later; lysates immunoprecipitated with anti-Myc or anti-Flag beads and immunoblotted; in Fig. 7f,g with SDC4 overexpressed or knocked down by siRNA"}, "[3]": {"target": "Myc-tagged SDC2 (UniProt P34741)", "assay": "co-IP; HEK293 cells transfected with epitope-tagged expression plasmids, lysed 24 h later; lysates immunoprecipitated with anti-Myc or anti-Flag beads and immunoblotted; in Fig. 7f,g with SDC4 overexpressed or knocked down by siRNA"}, "[4]": {"target": "Myc-tagged SDC3 (UniProt O75056)", "assay": "co-IP; HEK293 cells transfected with epitope-tagged expression plasmids, lysed 24 h later; lysates immunoprecipitated with anti-Myc or anti-Flag beads and immunoblotted; in Fig. 7f,g with SDC4 overexpressed or knocked down by siRNA"}, "[5]": {"target": "T3, Myc-tagged SDC4 (human) (UniProt P31431)", "T3 sequence": "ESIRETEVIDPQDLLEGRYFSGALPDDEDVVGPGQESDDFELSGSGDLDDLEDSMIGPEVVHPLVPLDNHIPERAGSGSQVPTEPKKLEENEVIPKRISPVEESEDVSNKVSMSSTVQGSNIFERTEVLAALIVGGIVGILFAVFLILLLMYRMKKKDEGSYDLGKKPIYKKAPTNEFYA", "assay": "co-IP; HEK293 cells transfected with epitope-tagged expression plasmids, lysed 24 h later; lysates immunoprecipitated with anti-Myc or anti-Flag beads and immunoblotted; in Fig. 7f,g with SDC4 overexpressed or knocked down by siRNA"}, "[6]": {"target": "Flag-tagged TRIM25, Q14258", "assay": "co-IP; HEK293 cells transfected with epitope-tagged expression plasmids, lysed 24 h later; lysates immunoprecipitated with anti-Myc or anti-Flag beads and immunoblotted; in Fig. 7f,g with SDC4 overexpressed or knocked down by siRNA", "conditions": "remark: other sources report otherwise"}, "[7]": {"target": "T4, Flag-tagged SDC4 (human) (UniProt P31431)", "T4 sequence": "T3 sequence", "assay": "co-IP; HEK293 cells transfected with epitope-tagged expression plasmids, lysed 24 h later; lysates immunoprecipitated with anti-Myc or anti-Flag beads and immunoblotted; in Fig. 7f,g with SDC4 overexpressed or knocked down by siRNA"}, "[8]": {"target": "T4, Flag-tagged SDC4 (human)", "assay": "co-IP; semi-endogenous: HEK293 transfected with Flag-SDC4, uninfected or infected with SeV for 7 h; 0.5% TritonX-100 lysis buffer (50 mM Tris-Cl pH 7.5, 150 mM NaCl, 10% glycerol, 1 mM EDTA); anti-Flag agarose beads 4–6 h at 4 °C"}, "[9]": {"target": "T5, endogenous SDC4 (UniProt P31431)", "T5 sequence": "T3 sequence", "assay": "co-IP; endogenous: cells uninfected or infected with SeV; 0.2% TritonX-100 lysis buffer (20 mM Tris-Cl pH 7.5, 100 mM NaCl, 10% glycerol, 10 mM EDTA); anti-SDC4 antibody or control IgG overnight at 4 °C, then proteinA/G agarose beads 2–3 h"}},
  "note": "These are yes or no findings as the source states them, for the method shown. Binding seen in cells or lysates may run through a third protein. Some results given as binding are weak or reduced against the parent protein; the word gives no strength. For part of these data: Where a sequence is shown, tags or fusion partners need not be part of it.",
  "data": [
    {"binder": "B1", "values": [
      {"measurement": "binding", "setting": "[1]", "result": "binds"},
      {"measurement": "binding", "setting": "[2]", "result": "no binding"},
      {"measurement": "binding", "setting": "[3]", "result": "no binding"},
      {"measurement": "binding", "setting": "[4]", "result": "no binding"},
      {"measurement": "binding", "setting": "[5]", "result": "binds"}
    ]},
    {"binder": "B2", "values": [
      {"measurement": "binding", "setting": "[6]", "result": "binds"}
    ]},
    {"binder": "B3", "values": [
      {"measurement": "binding", "setting": "[7]", "result": "binds"}
    ]},
    {"binder": "B4", "values": [
      {"measurement": "binding", "setting": "[8]", "result": "binds"},
      {"measurement": "binding", "setting": "[9]", "result": "binds"}
    ]}
  ]
}
